# Reference: the supplement of paper PMC8728848
# This is one part of the list.
# B1: Arath Fbox LD (Arabidopsis thaliana) (protein)
# chain: EFSVWLEKASGKRCLMLSAMNLSIIWGDNPQYWQWIPIPESRFEKVAKLRDVCWFEIRGRTNTRVLSPRTRYSAYIVFKGVDKCYGFQNVAIEAAVGVVGQEPSRRLICFSEAIRRGRRNVVKPKQREDGWMEIELGEFFNDGGIMDNDEIEMSALETKQLNRKCGLIIQGIEIRPAKILAAASFLEQKLISEEDLNSAVDHHHHHH
# What was measured:
# Test in all cases: glycan array binding signal (z-score within array); higher = stronger binding
# Details in all cases: glycan notation: IUPAC condensed, linker removed
# Neu5Ac(a2-8)Neu5Ac = biological target: Neu5Ac(a2-8)Neu5Ac
# Summary of the method: (§1)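 Glycan array data were curated from 3228 arrays in the Consortium for Functional Glycomics database and kept only where the protein sequence was available. Glycan names were converted to IUPAC-condensed notation, and columns mapping to the same glycan were averaged. The binding signal is a within-array Z-score, averaged across arrays of the same protein sequence at different concentrations or buffers and across linkers. Negative Z-scores can be read as non-binding.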
# [1] = biological target: Neu5Ac(a2-8)Neu5Ac(a2-3)Gal(b1-3)GalNAc(b1-4)[Neu5Ac(a2-3)]Gal(b1-4)Glc
# Summary of the method: as §1
# [2] = biological target: Neu5Ac(a2-8)Neu5Ac(a2-3)Gal(b1-3)GalNAc(b1-4)[Neu5Ac(a2-8)Neu5Ac(a2-3)]Gal(b1-4)Glc
# Summary of the method: as §1
# [3] = biological target: Neu5Ac(a2-8)Neu5Ac(a2-3)Gal(b1-4)Glc
# Summary of the method: as §1
# [4] = biological target: Neu5Ac(a2-8)Neu5Ac(a2-3)Gal(b1-4)GlcNAc
# Summary of the method: as §1
# [5] = biological target: Neu5Ac(a2-8)Neu5Ac(a2-3)[Gal(b1-3)GalNAc(b1-4)]Gal(b1-4)Glc
# Summary of the method: as §1
# [6] = biological target: Neu5Ac(a2-8)Neu5Ac(a2-3)[GalNAc(b1-4)]Gal(b1-4)Glc
# Summary of the method: as §1
# [7] = biological target: Neu5Ac(a2-8)Neu5Ac(a2-8)Neu5Ac
# Summary of the method: as §1
# [8] = biological target: Neu5Ac(a2-8)Neu5Ac(a2-8)Neu5Ac(a2-3)Gal(b1-4)Glc
# Summary of the method: as §1
# [9] = biological target: Neu5Ac(a2-8)Neu5Ac(a2-8)Neu5Ac(a2-3)[Gal(b1-3)GalNAc(b1-4)]Gal(b1-4)Glc
# Summary of the method: as §1
# [10] = biological target: Neu5Ac(a2-8)Neu5Ac(a2-8)Neu5Ac(a2-3)[GalNAc(b1-4)]Gal(b1-4)Glc
# Summary of the method: as §1
# [11] = biological target: Neu5Ac(a2-8)Neu5Ac(a2-8)Neu5Ac(a2-8)Neu5Ac(a2-3)[GalNAc(b1-4)]Gal(b1-4)Glc
# Summary of the method: as §1
# [12] = biological target: Neu5Ac(a2-8)Neu5Gc(a2-3)Gal(b1-4)GlcNAc
# Summary of the method: as §1
# [13] = biological target: Neu5Ac(b2-6)Gal(b1-4)GlcNAc
# Summary of the method: as §1
# Neu5Ac(b2-6)GalNAc = biological target: Neu5Ac(b2-6)GalNAc
# Summary of the method: as §1
# [14] = biological target: Neu5Ac9Ac(a2-3)Gal(b1-3)GlcNAc
# Summary of the method: as §1
# [15] = biological target: Neu5Ac9Ac(a2-3)Gal(b1-4)GlcNAc
# Summary of the method: as §1
# [16] = biological target: Neu5Ac9Ac(a2-6)Gal(b1-4)GlcNAc
# Summary of the method: as §1
# [17] = biological target: Neu5Gc(a2-3)Gal(b1-3)GlcNAc
# Summary of the method: as §1
# [18] = biological target: Neu5Gc(a2-3)Gal(b1-3)[Fuc(a1-4)]GlcNAc
# Summary of the method: as §1
# Neu5Gc(a2-3)Gal(b1-4)Glc = biological target: Neu5Gc(a2-3)Gal(b1-4)Glc
# Summary of the method: as §1
# [19] = biological target: Neu5Gc(a2-3)Gal(b1-4)GlcNAc
# Summary of the method: as §1
# [20] = biological target: Neu5Gc(a2-3)Gal(b1-4)GlcNAc(b1-3)Gal(b1-4)GlcNAc(b1-2)Man(a1-3)[Neu5Gc(a2-3)Gal(b1-4)GlcNAc(b1-3)Gal(b1-4)GlcNAc(b1-2)Man(a1-6)]Man(b1-4)GlcNAc(b1-4)GlcNAc
# Summary of the method: as §1
# [21] = biological target: Neu5Gc(a2-3)Gal(b1-4)[Fuc(a1-3)]GlcNAc
# Summary of the method: as §1
# [22] = biological target: Neu5Gc(a2-6)Gal(b1-4)GlcNAc
# Summary of the method: as §1
# Neu5Gc(a2-6)GalNAc = biological target: Neu5Gc(a2-6)GalNAc
# Summary of the method: as §1
# [23] = biological target: Neu5Gc(a2-8)Neu5Ac(a2-3)Gal(b1-4)GlcNAc
# Summary of the method: as §1
# [24] = biological target: Neu5Gc(a2-8)Neu5Gc(a2-3)Gal(b1-4)GlcNAc
# Summary of the method: as §1
# [25] = biological target: Neu5Gc(a2-8)Neu5Gc(a2-3)Gal(b1-4)GlcNAc(b1-3)Gal(b1-4)GlcNAc
# Summary of the method: as §1
# [26] = biological target: Neu5Gc(a2-8)Neu5Gc(a2-6)Gal(b1-4)GlcNAc
# Summary of the method: as §1
# [27] = biological target: Neu5Gc(b2-6)Gal(b1-4)GlcNAc
# Summary of the method: as §1
binder,measurement,setting,value
B1,glycan array binding signal (z-score),Neu5Ac(a2-8)Neu5Ac,-0.05
same,glycan array binding signal (z-score),[1],0.001
same,glycan array binding signal (z-score),[2],0.099
same,glycan array binding signal (z-score),[3],-0.516
same,glycan array binding signal (z-score),[4],-0.254
same,glycan array binding signal (z-score),[5],0.058
same,glycan array binding signal (z-score),[6],0.575
same,glycan array binding signal (z-score),[7],0.248
same,glycan array binding signal (z-score),[8],-0.015
same,glycan array binding signal (z-score),[9],-0.484
same,glycan array binding signal (z-score),[10],-0.272
same,glycan array binding signal (z-score),[11],0.508
same,glycan array binding signal (z-score),[12],-0.634
same,glycan array binding signal (z-score),[13],-0.521
same,glycan array binding signal (z-score),Neu5Ac(b2-6)GalNAc,-0.483
same,glycan array binding signal (z-score),[14],3.71
same,glycan array binding signal (z-score),[15],-0.498
same,glycan array binding signal (z-score),[16],-0.428
same,glycan array binding signal (z-score),[17],-0.256
same,glycan array binding signal (z-score),[18],-0.502
same,glycan array binding signal (z-score),Neu5Gc(a2-3)Gal(b1-4)Glc,0.057
same,glycan array binding signal (z-score),[19],-0.477
same,glycan array binding signal (z-score),[20],-0.554
same,glycan array binding signal (z-score),[21],-0.373
same,glycan array binding signal (z-score),[22],-0.381
same,glycan array binding signal (z-score),Neu5Gc(a2-6)GalNAc,-0.28
same,glycan array binding signal (z-score),[23],-0.05
same,glycan array binding signal (z-score),[24],-0.468
same,glycan array binding signal (z-score),[25],-0.404
same,glycan array binding signal (z-score),[26],-0.133
same,glycan array binding signal (z-score),[27],-0.261
